Assay results taken from publication PMC7819943, “Rice protein-binding microarrays: a tool to detect cis-acting elements near promoter regions in rice”.
Some of the results follow.

What follows are sequences tested against T1, OsWOX13 (Oryza sativa, UniProt Q5QMM3 1-267) (assay: protein-binding microarray (RPBM); PBS, 2% BSA, 51.3 ng/ul salmon testes DNA, 50 uM zinc acetate, 200 nM TF, 25 C, 1 h; high values mean tight binding). Details: protein: recombinant; tags: N-terminal polyhistidine and DsRed monomer fusion (pET32a); label: CyDye5-dUTP incorporated in the synthesized complementary strand; 3' TTTTT single-stranded linker to array surface; dsDNA, one strand shown.
T1 sequence: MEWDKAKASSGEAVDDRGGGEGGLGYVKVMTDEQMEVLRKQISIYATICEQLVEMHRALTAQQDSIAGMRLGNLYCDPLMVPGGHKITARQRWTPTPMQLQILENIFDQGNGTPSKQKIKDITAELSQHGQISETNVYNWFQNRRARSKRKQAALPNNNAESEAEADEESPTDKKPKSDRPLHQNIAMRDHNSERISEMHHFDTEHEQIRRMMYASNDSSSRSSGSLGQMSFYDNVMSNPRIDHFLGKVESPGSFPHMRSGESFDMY
How it was run: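 A custom Agilent array was converted to double-stranded form by primer extension with Cy5-dUTP and blocked with 2% BSA. Protein at 200 nM in PBS with 2% BSA, salmon testes DNA and 50 µM zinc acetate was applied for 1 h at 25 °C, followed by washing. The proteins were polyhistidine–DsRed N-terminal fusions of transcription factors, expressed in E. coli BL21-CodonPlus and Ni–NTA-purified. The binding signal is per-feature fluorescence intensity (arbitrary units) from an Axon 4000B scanner.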

Sequence | binding signal
TTAAATTGAATAATTTTAAAGTTATTTATAATCAAAGCTACGGAGTCACCTAGTGCAG | 22700 fluorescence intensity (a.u.)
AAATTGTATTCCTAATTGGACTCTCTTTTCCTTTTCTAATCGGAGTCACCTAGTGCAG | 3430 fluorescence intensity (a.u.)
TGTGCAGTGACAAGAAATTTCCTTGCGTCTCTTTGTTTCACGGAGTCACCTAGTGCAG | 3640 fluorescence intensity (a.u.)
TATTTTGATTGGAGCGTCTATTTAATATTGGGCCCTATAACGGAGTCACCTAGTGCAG | 31900 fluorescence intensity (a.u.)
GGTATATGTAATTTGAATTCCGTATCAATTGTTTTGCTAGCGGAGTCACCTAGTGCAG | 4910 fluorescence intensity (a.u.)
TAGCAAACTGATAGTTTTGTCACTAAAGTTATAGTTTTCTCGGAGTCACCTAGTGCAG | 3340 fluorescence intensity (a.u.)
AATTGATTTAATTTGGGACGGAGGAAATAGTACAATTCACCGGAGTCACCTAGTGCAG | 41900 fluorescence intensity (a.u.)
ACTTGTTGATTTATATACCCTTGCTGTCTATGTGAATTTCCGGAGTCACCTAGTGCAG | 10100 fluorescence intensity (a.u.)
AACAAATGCATAATTTATCCACTTCAAGCCCTGGGAAAATCGGAGTCACCTAGTGCAG | 3680 fluorescence intensity (a.u.)
TGTAAACTACACAGATTAATCTTTGCTAGTATACATATAGCGGAGTCACCTAGTGCAG | 3150 fluorescence intensity (a.u.)
AGGCCCAATTACTGATCGAAATTTCGATGATTTCGATCGACGGAGTCACCTAGTGCAG | 18500 fluorescence intensity (a.u.)
CCAATTGTTGATGATTTGCAGGATGGACCTGCTAATTAATCGGAGTCACCTAGTGCAG | 10300 fluorescence intensity (a.u.)
TCTCATTTAATATTCCCATCAGTCGTACGTGCACACCAGTCGGAGTCACCTAGTGCAG | 3330 fluorescence intensity (a.u.)
GGATAAATTCCCTTTAATTGATCCGATTCCATCGAGAACACGGAGTCACCTAGTGCAG | 27000 fluorescence intensity (a.u.)
CTAACCTGATAGAAGTACATGATTAATCGATGATTAGCCGCGGAGTCACCTAGTGCAG | 27100 fluorescence intensity (a.u.)
TCGTTGAAGTAGATTGAATCTATACGTACAGCGCGATTTACGGAGTCACCTAGTGCAG | 4570 fluorescence intensity (a.u.)
AGGATAATTTCGAATGTGAATGTGTTTATAAGAATAACAACGGAGTCACCTAGTGCAG | 4080 fluorescence intensity (a.u.)
GCAAAATCAATCTAGGGTTTGCCTCCTACTCTGTACTGCGCGGAGTCACCTAGTGCAG | 4870 fluorescence intensity (a.u.)
GTAATTAATTTTAACATCATATCATCTCATAGAGAGCACGCGGAGTCACCTAGTGCAG | 50100 fluorescence intensity (a.u.)
TAGCCAATCTAATAGCTCATTCATATAATAATTACATACTCGGAGTCACCTAGTGCAG | 4410 fluorescence intensity (a.u.)
TTGTGCAGATTGTGACTAATTTACGAGATGAATCTTTTGACGGAGTCACCTAGTGCAG | 11000 fluorescence intensity (a.u.)

Sequence | binding signal
ATTTGACATATATGTTAAAATCTTCACCTAAGATTTTCGTCGGAGTCACCTAGTGCAG | 7360 fluorescence intensity (a.u.)
GTCTTAGATTATCAAATCATTTACAAACAAGAACATCCGTCGGAGTCACCTAGTGCAG | 28300 fluorescence intensity (a.u.)
CACTGAAAGAATAATTAAACGTAATTGCGAGTACATGTGTCGGAGTCACCTAGTGCAG | 31000 fluorescence intensity (a.u.)
ATAGATAGATAGATAGATAGATGTAGTCATCATCACACATCGGAGTCACCTAGTGCAG | 49300 fluorescence intensity (a.u.)
TCACCTTGATAAATTTTATAAAATTACATATATTTTGATCCGGAGTCACCTAGTGCAG | 8560 fluorescence intensity (a.u.)
TAGATTTAATTTTAATCCTAGCTTCACCACACCATGATCCCGGAGTCACCTAGTGCAG | 12200 fluorescence intensity (a.u.)
GTGCCAATCAGAGTTGGTGGCGACAACGAGATGGAAGCAACGGAGTCACCTAGTGCAG | 5330 fluorescence intensity (a.u.)
GTAAATTTTAGCCGGGATTAATACGTGTTTGTGCTTGGCGCGGAGTCACCTAGTGCAG | 9040 fluorescence intensity (a.u.)
TATAGTTAATTTAATTGTTGTGCTAATTGTTTGCGTGGTCCGGAGTCACCTAGTGCAG | 41200 fluorescence intensity (a.u.)
TCGTGATTTATATAGCGATACATCCCACCGTGTAAATAAGCGGAGTCACCTAGTGCAG | 37500 fluorescence intensity (a.u.)
AGACTATTTACAAAACTAATTACATAAATGAAAGCTAACTCGGAGTCACCTAGTGCAG | 5260 fluorescence intensity (a.u.)
TCCTAATTCCCGAAACTAAAATAACACAATGTATCATATGCGGAGTCACCTAGTGCAG | 5500 fluorescence intensity (a.u.)
ATCCATCATAATTATCATTAAAATTTCTAATCAATACTTACGGAGTCACCTAGTGCAG | 9780 fluorescence intensity (a.u.)
AACGTATTTTATAATTATTTTATTTATTAGTGCTTAAACACGGAGTCACCTAGTGCAG | 3730 fluorescence intensity (a.u.)
CCAAAGGATTGAGAATGGATTCACTTACTTGGCTACGAGTCGGAGTCACCTAGTGCAG | 3160 fluorescence intensity (a.u.)
ATTGATTGGAGCCGAGAATGAGAAAGGATGACACGTTCGTCGGAGTCACCTAGTGCAG | 35500 fluorescence intensity (a.u.)
GCAGAACACGTACTGTTGATTGATTCAGGCGAAGAGCCAACGGAGTCACCTAGTGCAG | 27000 fluorescence intensity (a.u.)
TAATGTGATAGACTGATAGTGCTACTCATACTCCCCTGTTCGGAGTCACCTAGTGCAG | 27100 fluorescence intensity (a.u.)
GTTAAATTTGTAGTTTTGTGATGATTTGATCAAAGTATATCGGAGTCACCTAGTGCAG | 22700 fluorescence intensity (a.u.)
AATAAATAAACAAATACGATACTTCTTAAGTACAAGCGTGCGGAGTCACCTAGTGCAG | 3670 fluorescence intensity (a.u.)
ATATATATATATATATATATATATATATATAATCTCTCCTCGGAGTCACCTAGTGCAG | 18800 fluorescence intensity (a.u.)
